Among all 390,000 compounds or so, about 4,700 (1.2%) were called active. Inconclusive results, whose numbers are uncertain, are shown with a selection of clear calls. Calls follow the shape of the dose curve; as a rule, active = well fitted inhibition curve with a large enough effect; inconclusive = small, poorly fitted or top-dose-only effect, or another doubt; inactive = no such curve, though single readings can be large or run the other way. Where the call is inconclusive, the potency comes from a doubtful curve fit.
The compounds below were run against DNA polymerase eta (Homo sapiens) (UniProt Q9Y253) (assay: qHTS for Inhibitors of Polymerase Eta). Conditions: recombinant Pol eta, fluorescent DNA replication assay; series mostly up to 114 µM.
Sequence of UniProt Q9Y253 (Q9Y253 whole entry, looked up): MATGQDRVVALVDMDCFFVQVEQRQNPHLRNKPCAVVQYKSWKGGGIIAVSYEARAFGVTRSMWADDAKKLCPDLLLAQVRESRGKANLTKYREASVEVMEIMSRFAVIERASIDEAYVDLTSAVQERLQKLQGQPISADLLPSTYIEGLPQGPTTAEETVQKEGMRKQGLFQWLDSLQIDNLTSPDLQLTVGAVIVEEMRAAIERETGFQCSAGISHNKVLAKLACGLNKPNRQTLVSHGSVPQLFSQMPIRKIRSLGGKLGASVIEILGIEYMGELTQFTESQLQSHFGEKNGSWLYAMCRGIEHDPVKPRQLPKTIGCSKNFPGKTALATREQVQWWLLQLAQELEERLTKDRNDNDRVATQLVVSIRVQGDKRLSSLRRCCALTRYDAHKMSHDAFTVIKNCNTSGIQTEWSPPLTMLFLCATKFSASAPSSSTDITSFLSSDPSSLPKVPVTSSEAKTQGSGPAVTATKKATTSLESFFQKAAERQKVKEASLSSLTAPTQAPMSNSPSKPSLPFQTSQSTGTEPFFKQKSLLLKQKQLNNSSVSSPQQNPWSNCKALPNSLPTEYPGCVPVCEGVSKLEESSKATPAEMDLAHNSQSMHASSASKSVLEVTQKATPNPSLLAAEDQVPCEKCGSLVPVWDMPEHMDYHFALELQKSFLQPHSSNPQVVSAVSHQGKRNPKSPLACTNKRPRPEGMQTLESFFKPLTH
In short: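 Fluorescent replication assay: 50 nM final substrate added after a 15 min room-temperature compound preincubation with 10 nM enzyme. Signal taken at 0 min and again at 10 min.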
Potency is read from the fitted curve at half-maximal effect; tags tell the direction and shape of the fitted curve.

SMILES	Potency
O=C(Nc1sccc1C(=O)N1CCOCC1)c1cccnc1	inconclusive: 100 µM [inhibitor, partial curve, poor fit]
Cc1oc2c(O)c(O)ccc2c(=O)c1-c1cnn(-c2ccccc2)c1	inconclusive: 35.5 µM [inhibitor, single point]
C/C=C\C=C\C(=O)N1CC2(CC(c3cccc(NC(=O)CC)c3)=NO2)C[C@H]1C(N)=O (some centres undefined)	active: 35.5 µM
Cc1ccc(C)c(N2CCN(CCCNC(=O)c3ccc4nc(N5CCCCC5)sc4c3)CC2)c1	inactive
COc1cc(/C=N/NC(=O)c2ccccc2)ccc1O	inactive
O=C(Nc1cccc(F)c1)c1ccc(S(=O)(=O)N2CCCCC2)cc1	inconclusive: 79.4 µM [inhibitor, partial curve, poor fit]
CCC(=O)c1ccc(CCCCCC(=O)O)s1	active: 8.91 µM
CCOC(=O)c1sc(NC(=O)c2ccco2)c(C#N)c1C	inconclusive: 20 µM [inhibitor, partial curve, poor fit]
C1CCC(c2nn3c(-c4n[nH]c5c4CCC5)nnc3s2)CC1	inconclusive: 15.8 µM [inhibitor, partial curve, poor fit]
N#Cc1ccc(CSc2nnc(NC(=O)c3ccc4ncsc4c3)s2)cc1	active: 31.6 µM
CSc1ccccc1NC(=O)c1cc2ncc(Br)cn2n1	active: 44.7 µM
CCOc1ccc(C(=O)N[C@H](C(=O)Nc2ccc(S(=O)(=O)Nc3nccs3)cc2)C(C)C)cc1	inconclusive: 44.7 µM [inhibitor, partial curve, poor fit]
Nc1nc(SCc2nc3sc4c(c3c(=O)[nH]2)CCCC4)n[nH]1	inconclusive: 22.4 µM [inhibitor, single point]
CCCc1nn2c(=O)cc(COc3ccc(NC(=O)c4ccco4)cc3)nc2s1	inconclusive: 7.94 µM [inhibitor, full curve, poor fit]
CCc1cc2c(=O)c(-c3nc4ccccc4n3C)coc2c(CN2CCCCC2C)c1O (centres undefined)	inconclusive: 79.4 µM [inhibitor, single point]
CCn1c(CNc2nc3ccccc3n2C(C)C)nc2ccccc21	inconclusive: 89.1 µM [inhibitor, partial curve, poor fit]
Cc1ccc(CNC(=O)CCCN2C(=O)COc3ccc(C)cc32)cc1	inactive
CCOC(=O)CC(=O)CSc1nc(CC)c(C)cc1C#N	inactive
CC1(C)CC(=O)C(N=Nc2ccc(F)cc2)=C(O)C1	inconclusive: 89.1 µM [inhibitor, partial curve, poor fit]
CC(C)(C)c1cc(CCC(=O)NCc2ccncc2)cc(C(C)(C)C)c1O	inconclusive: 79.4 µM [inhibitor, partial curve, poor fit]
COCC(=O)N(C)C[C@H]1N[C@@](C)(C(=O)OC)[C@H]2C(=O)N(Cc3ccccc3)C(=O)[C@@H]12	inactive
COc1ccc(CCNC(=O)CCOc2cc(C)ccc2C)cc1OC	inconclusive: 89.1 µM [inhibitor, partial curve, poor fit]

SMILES	Potency
Cc1cc(C)n(Cc2ccc(C(=O)N/N=C/c3ccc(-c4ccc([N+](=O)[O-])cc4)o3)o2)n1	active: 6.31 µM
COc1ccc2[nH]c(C(=O)O)c(CCC(=O)O)c2c1	inconclusive: 25.1 µM [inhibitor, single point]
O=C(Oc1cc(-c2ccccc2)no1)c1ccc(Cl)cc1	inactive
COc1ccccc1NC(=O)CSc1nc(N)c(C#N)cc1C#N	inconclusive: 28.2 µM [inhibitor, partial curve, poor fit]
COc1ccc(OC)c(NC(=O)C2CC(=O)N(CCc3ccc(F)cc3)C2)c1 (centres undefined)	inconclusive: 20 µM [inhibitor, partial curve, poor fit]
CCOc1ccc2oc(C(=O)N3CCN(c4ccccn4)CC3)c(C)c2c1	active: 20 µM
CCO/C=C1/C(=O)N(Cc2ccccc2)C(=O)c2ccccc21	inconclusive: 20 µM [inhibitor, partial curve, poor fit]
Cc1ccc(/C=N/NC(=O)NC2CCCCC2)o1	inactive
O=C(CNC(=O)c1ccc(-c2ccccc2)cc1)OCc1ccc(Br)cc1	active: 22.4 µM
CCc1ccc(/C=C2/SC(=S)N(CCCC(=O)Nc3ccccc3C(=O)O)C2=O)cc1	active: 79.4 µM
O=c1c2sc3ccccc3c2n(Cc2cccc(C(F)(F)F)c2)c(=O)n1Cc1ccc(F)cc1	inactive
COc1ccc2oc(-c3cccc(NC(=O)c4sc5c([N+](=O)[O-])cccc5c4Cl)c3)nc2c1	inactive
COc1ccc(/C=N/Nc2nc(N3CCCCC3)nc(N3CCCCC3)n2)cc1[N+](=O)[O-]	inconclusive: 79.4 µM [inhibitor, partial curve, poor fit]
COc1cccc(-n2c(CCn3nc(C)c([N+](=O)[O-])c3C)n[nH]c2=S)c1	inconclusive: 0.631 µM [inhibitor, full curve, poor fit]
O=C(CCC(=O)Nc1ccccc1)N/N=C/C=C/c1ccccc1	inconclusive: 12.6 µM [inhibitor, partial curve, poor fit]
CC(C)C(C(=O)O)N1C(=O)/C(=C/C=C/c2ccco2)SC1=S (centres undefined)	active: 0.794 µM
Cc1nnc(NC(=O)C(=O)c2cc(C)n(-c3ccc(C)c(C)c3)c2C)s1	inactive
COC(=O)c1ccc(-n2c(C)cc(C(=O)CCl)c2C)cc1	inconclusive: 50.1 µM [inhibitor, partial curve, poor fit]
COc1cccc(-c2cc3nc(C)c(C)c(N4CCN(C(=O)c5ccoc5)CC4)n3n2)c1	inconclusive: 44.7 µM [inhibitor, partial curve, poor fit]
Cc1ccc(-n2nc3c(c2NC(=O)c2ccco2)CS(=O)C3)c(C)c1 (centres undefined)	inconclusive: 15.8 µM [inhibitor, partial curve]
Clc1ccc(Br)cc1-c1nc(-c2ccncc2)no1	inconclusive: 28.2 µM [inhibitor, single point]
O=S(=O)(Nc1ncnc2sc3c(c12)CCC3)c1ccc2ccccc2c1	inconclusive: 28.2 µM [inhibitor, partial curve]

— PubChem BioAssay AID588591 (National Center for Advancing Translational Sciences (NCATS), 2011)
